Source: ChEMBL document CHEMBL4888484, “Replenishing the malaria drug discovery pipeline: Screening and hit evaluation of the MMV Hit Generation Library 1 (HGL1) against asexual blood stage Plasmodium falciparum ,using a nano luciferase reporter read-out” (2022)
Among all 150,000 compounds or so, about 540 (0.36%) showed an effect of 50% or more. The list shows a part of the results.

Each compound was assayed on Plasmodium falciparum (assay: Primary screen in NF54 nanoGlo assay, in single point, at 2uM, 72h; a lower Z score goes with more inhibition). Conditions: timepoint 72 hour.
Format: functional, Erythrocyte

SMILES | % Inhibition [%] | Z score
COc1cccc(OC)c1C(=O)N[C@@H](C)c1nnc(C)o1 | -2 | 0.32
Cc1nc(N2CCN(C(=O)c3ccco3)CC2)c2c(C)nn(-c3ccccc3C)c2n1 | -21 | 2.26
CC(=O)N1C(=O)COC[C@@H]1[C@H](O)c1ccc(NC(=O)C2CCC2)cc1 | -9 | 1.62
C1CC(c2nc(C3(CC4CC4)CCN(C4CCOCC4)CC3)no2)CCO1 | -9 | 1.25
Cc1csc(-c2nccn2-c2ccc3cn[nH]c3c2)n1 | 7 | -0.66
O=C(Cc1ccc(Cl)cc1)N1CCC([C@H]2CCNC2)CC1 | 2 | -0.28
CCN(CC)c1onc(-c2ccccc2)c1CN(CCN(C)C)C(=O)c1ccccc1 | 0 | 0.02
CC(C)[C@@](C)(C#N)NC(=O)CNc1ccc(F)c(F)c1F | -6 | 0.75
CCOC(=O)c1ccc(NC(=O)[C@H](C)n2nc(-c3ccccc3)c3cc(Cl)ccc32)cc1 | 1 | -0.24
O=C(CCCn1cncn1)N1CCN(c2ccc3cn[nH]c3c2)C(=O)C1 | 0 | 0.02
C[C@H]1COc2ccc(CN3CCN(C)CC3)cc2CN1C(=O)CCCc1ccccc1 | -6 | 0.56
O=S(=O)(c1cccnc1)N1CC2(CC2)c2ccccc21 | 0 | 0.01
CC(=O)c1ccc(N2CCN(C(=O)NC3CC3)CC2)cc1 | 28 | -3.15
COc1ccccc1N(CCC(N)=O)C(=O)CN1CCC[C@H]1c1nnc2ccccn12 | 13 | -2.49
Oc1ncnc2nc(-c3ccccc3)cnc12 | 9 | -1.2
Cc1ccccc1S(=O)(=O)Nc1ccc(N2CCCCCC2)c(C(=O)O)c1 | -15 | 1.49
CC(C)CC1(C(=O)N(C)Cc2nnc3n2CCN(C)C3=O)CCCC1 | -9 | 0.72
COC1(CNC(=O)Nc2nc(Cc3ccccc3)cs2)CCOCC1 | 7 | -1.01
CCc1cc(N2CCN(C3CCN(c4ccc(C)cc4)CC3)CC2)ncn1 | -26 | 2.59
CCN1CC(=O)N[C@H]2CN(C(=O)c3cnn(CC)c3C)CC[C@@H]2OCc2cccc(c2)Oc2cc(OC(C)C)cc(c2)C1=O | -5 | 0.73
CCn1c(N)c2c(=O)n(CC)c(-c3ccc(C)cc3)cc2c(C#N)c1=O | -17 | 1.95

SMILES | % Inhibition [%] | Z score
Cn1cccc1[C@@H](O)CCNC(=O)C1CCCCC1 | 0 | -0.03
COc1cccc(CNC(=O)CON=C(N)Cc2ccccc2)c1 | -4 | 0.49
Cc1ccc(C(=O)N2CCC3(CCNC(=O)CC3)CC2)n1C(F)F | 2 | -0.26
Cc1n[nH]c(=O)c(C(=O)Nc2cccc(Cl)c2)c1C | -6 | 0.77
O=C(NCC[C@@H](CCO)c1ccsc1)c1cccs1 | 8 | -1.15
Cc1csc(C2(NS(=O)(=O)CC34CCC(CC3)C4)CCC2)n1 | -9 | 1.7
CN(CCc1cnn(C)c1)[C@@H](C(=O)O)c1cccc2c1OCC2 | -10 | 1.67
O=C(NCCc1nccn1Cc1ccccc1)c1cc2c(F)cccc2s1 | -34 | 4.03
Cc1nn(-c2ccccc2)c2nc(N3CCC[C@H](C(=O)NCc4ccc(F)cc4)C3)sc12 | -13 | 1.74
O=C(CC[C@H]1CCOC1)N(CC(F)F)c1ccc(F)cc1 | -2 | 0.19
Nc1[nH]nc(C(=O)NC2(C(=O)O)CCCC2)c1Cl | -28 | 2.44
CCO[C@H]1CCN(C(=O)Nc2cccc3c2OCC3)C1 | 1 | -0.2
Cc1c(C(=O)Nc2ccccc2C(=O)N2CCCCC2)oc2ccccc12 | -11 | 1.73
CCOc1nnc(CN2CCC[C@H](Cc3nc(C)no3)C2)s1 | 1 | -0.12
CC(C)C[C@@](C)(CC(=O)O)C(=O)N1CC2CC1(C)C2 | -6 | 0.76
COC(=O)c1c(O)ccn1Cc1ccccc1 | 30 | -3.83
CC(C)C1CCC(C)C(C(C#N)(C#N)C(C#N)C#N)C1=O (centres undefined) | -12 | 1.47
C[C@@H](C#N)NS(=O)(=O)c1sccc1Cl | -8 | 1.23
Cn1cc(C2OCCC2CNCc2ccc(C#N)cc2)cn1 (centres undefined) | -9 | 1.54
O=C(Cn1c(=O)n(Cc2ccc(F)cc2)c(=O)c2sccc21)Nc1ccc(F)c(Cl)c1 | -2 | 0.23
CCc1ccc(CN(C)Cc2cc3n(n2)CCCN(C[C@H]2CCOC2)C3)nc1 | 6 | -1
